# From PubChem BioAssay (Tox21)
# The shares of active, inactive and inconclusive entries below differ from those in the screen. A call without a number means that no potency is given here. For some of these results: A potency beside an inconclusive call is a rough fit, not a confirmed value. Activity calls are given as the source filed them. Unless noted, calls follow the shape of the dose curve; as a rule, active = well fitted curve in the direction sought with a large enough effect in the repeat runs; inconclusive = weak or mixed curves; inactive = no such curve, though single readings can be large; an effect the other way counts as inactive or inconclusive.
# Assays:
# [1] = qHTS assay for identifying genotoxic compounds that show differential cytotoxicity against isogenic chicken DT40 cell lines with known DNA damage response pathways - Rad54/Ku70 mutant cell line (AID 743015); conditions: DT40 Rad54/Ku70 mutant viability, CellTiter-Glo, 40 h; activity change, negative = cytotoxicity: at 66.8 µM (top of the series) unless noted; also: nearly all actives have a fitted effect of over 60% in size
# [2] = qHTS assay to identify small molecule antagonists of the thyroid receptor (TR) signaling pathway - cell viability counter screen (AID 743064); conditions: GH3.TRE-Luc viability, CellTiter-Fluor, 24 h; activity change, negative = cytotoxic: at 70.3 µM (top of the series) unless noted; also: nearly all actives have a fitted effect of over 50% in size
# How it was run: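 Viability of T3-stimulated (1 nM final) GH3.TRE-Luc cells is measured by CellTiter-Fluor fluorescence after 23.5 h compound exposure at 37 °C plus 30 min reagent incubation.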
# [3] = qHTS assay to identify small molecule antagonists of the thyroid receptor (TR) signaling pathway (AID 743065); also: nearly all actives have a fitted effect of over 55% in size
# How it was run: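 GH3.TRE-Luc rat pituitary cells (two TREs driving luciferase) were dosed with compound, then stimulated with 1 nM T3 (final) for 23.5 h at 37 C. ONE-Glo luminescence was the read-out, with CellTiter-Fluor fluorescence as the cytotoxicity counter-screen.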
# [4] = qHTS assay to identify small molecule antagonists of the estrogen receptor alpha (ER-alpha) signaling pathway - cell viability counter screen (AID 743074; calls by dose curve;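 also: HEK293 cells carrying ER-alpha-UAS-bla reporter stimulated with 17beta-estradiol; nearly all actives have a fitted effect of over 45% in size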)
# [5] = qHTS assay to identify small molecule agonists of the vitamin D receptor (VDR) signaling pathway - cell viability counter screen (AID 743224); also: nearly all actives have a fitted effect of over 50% in size
# How it was run: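 Counter screen run in the same wells as the VDR-bla reporter assay: CellTiter-Glo luminescence, 30 min at room temperature, after 16 h compound treatment at 37C of cells pre-plated for 4 h.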
# [6] = qHTS assay to identify small molecule antagonists of the vitamin D receptor (VDR) signaling pathway - cell viability counter screen (AID 743225); conditions: VDR-bla HEK293T viability, CellTiter-Glo luminescence, 16 h; viability change, negative = cytotoxic: at 61 µM (top of the series) unless noted; also: nearly all actives have a fitted effect of over 50% in size
# How it was run: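 Same-well multiplex: following 16 h treatment of HEK 293T cells carrying a UAS-driven beta-lactamase reporter with compound and agonist (3 nM final), and a 2 h FRET substrate step, CellTiter-Glo was added and luminescence read after 30 min.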
# [7] = molecular target: Progesterone receptor (Homo sapiens) (UniProt P06401); assay: qHTS assay to identify small molecule agonists of the progesterone receptor (PR) signaling pathway (AID 1346784; calls by dose curve; also: nearly all actives have a fitted effect of over 30% in size); conditions: PR-UAS-bla HEK293T, beta-lactamase FRET ratio, 16 h; activation: at 92.4 µM (top of the series) unless noted
# Chain of UniProt P06401 (P06401 whole entry, looked up): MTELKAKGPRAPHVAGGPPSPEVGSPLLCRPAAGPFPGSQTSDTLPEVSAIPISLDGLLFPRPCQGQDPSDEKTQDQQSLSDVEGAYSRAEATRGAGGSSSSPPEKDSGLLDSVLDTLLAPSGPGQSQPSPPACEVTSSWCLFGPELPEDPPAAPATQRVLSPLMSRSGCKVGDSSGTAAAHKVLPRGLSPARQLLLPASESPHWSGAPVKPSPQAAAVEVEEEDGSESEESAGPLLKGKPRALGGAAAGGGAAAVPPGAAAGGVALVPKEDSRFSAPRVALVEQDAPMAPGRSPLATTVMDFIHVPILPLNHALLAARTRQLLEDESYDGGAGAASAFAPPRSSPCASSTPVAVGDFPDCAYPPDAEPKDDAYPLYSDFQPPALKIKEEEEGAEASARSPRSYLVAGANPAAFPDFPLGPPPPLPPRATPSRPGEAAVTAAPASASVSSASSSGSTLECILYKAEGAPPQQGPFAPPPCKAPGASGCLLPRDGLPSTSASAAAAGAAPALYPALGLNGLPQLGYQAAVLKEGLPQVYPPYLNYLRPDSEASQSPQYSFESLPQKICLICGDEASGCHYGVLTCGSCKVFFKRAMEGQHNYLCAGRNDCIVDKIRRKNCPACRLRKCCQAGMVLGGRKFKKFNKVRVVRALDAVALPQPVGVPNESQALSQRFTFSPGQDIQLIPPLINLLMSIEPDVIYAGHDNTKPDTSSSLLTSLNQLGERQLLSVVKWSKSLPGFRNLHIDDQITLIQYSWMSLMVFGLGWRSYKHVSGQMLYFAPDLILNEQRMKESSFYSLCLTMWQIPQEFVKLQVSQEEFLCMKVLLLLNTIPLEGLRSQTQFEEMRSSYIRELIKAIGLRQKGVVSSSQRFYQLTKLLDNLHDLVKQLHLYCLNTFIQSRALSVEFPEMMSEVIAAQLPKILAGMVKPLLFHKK
# How it was run: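 Fluorescence from LiveBLAzer B/G FRET substrate cleavage (2 hr, RT) reported PR activation in PR-UAS-bla HEK 293T cells treated 16 hr at 37C/5% CO2 with compounds; medium contained 2% charcoal-stripped FBS.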
# [8] = molecular target: Progesterone receptor (Homo sapiens) (UniProt P06401); assay: qHTS assay to identify small molecule antagonists of the progesterone receptor (PR) signaling pathway (AID 1346795; active = well fitted inhibition curve with a large enough effect in the signal ratio in the repeat runs, not every such curve was filed as active; inconclusive = weak or mixed curves; the % refers to the signal ratio); conditions: PR-UAS-bla HEK293T, beta-lactamase FRET ratio, 16 h; activity change, negative = inhibition: at 92.4 µM (top of the series) unless noted
# How it was run: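 Fluorescence intensity measured 2 hr after adding beta-lactamase FRET substrate to PR-UAS-bla HEK293T cells that had been co-treated 16 hr with compound and 1 nM R5020 (final concentration) in 2% charcoal-stripped FBS.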
# [9] = molecular target: Cytochrome P450 2C9 (Homo sapiens) (UniProt P11712); assay: Cytochrome P450 Family 2 Subfamily C Member 9 (CYP2C9) small molecule antagonists: luciferase reporter qHTS assay (AID 1671198); also: nearly all actives have a fitted effect of over 50% in size
# Chain of UniProt P11712 (P11712 whole entry, looked up): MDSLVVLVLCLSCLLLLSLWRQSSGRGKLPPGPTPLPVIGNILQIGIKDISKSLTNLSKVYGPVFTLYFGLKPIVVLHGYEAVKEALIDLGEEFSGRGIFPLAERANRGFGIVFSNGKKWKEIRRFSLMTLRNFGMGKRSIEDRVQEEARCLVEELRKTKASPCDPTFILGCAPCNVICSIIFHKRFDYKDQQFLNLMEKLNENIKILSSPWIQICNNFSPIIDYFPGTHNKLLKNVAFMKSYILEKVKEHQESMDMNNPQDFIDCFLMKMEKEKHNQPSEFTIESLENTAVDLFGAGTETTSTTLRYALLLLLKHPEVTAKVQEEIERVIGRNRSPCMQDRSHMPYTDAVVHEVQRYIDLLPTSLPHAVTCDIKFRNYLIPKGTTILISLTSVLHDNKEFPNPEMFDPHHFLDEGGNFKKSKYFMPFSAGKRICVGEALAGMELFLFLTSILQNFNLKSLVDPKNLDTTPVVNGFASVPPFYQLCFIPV
# How it was run: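 P450-Glo proluciferin substrate with CYP2C9 enzyme; 10 min RT preincubation, then NADPH regeneration 1 h at 37C; luciferin detection reagent 20 min RT, luminescence in relative luminescence units.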
# [10] = qHTS assay for small molecule disruptors of the mitochondrial membrane potential (AID 720635); conditions: HepG2 mitochondrial membrane potential, Mito-MPS dye ratio; ratio activity, negative = MMP loss: at 83.2 µM (top of the series) unless noted; also: potency is read from the fitted curve at half-maximal effect
# How it was run: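 HepG2 cells exposed to compound 1 hr at 37C, then Mito-MPS dye 30 min. Ratio read of aggregate (540/590 nm) versus monomer (490/535 nm) fluorescence.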
# [11] = qHTS assay to identify small molecule antagonists of the estrogen receptor alpha (ER-alpha) signaling pathway using the BG1 cell line - cell viability counter screen (AID 743081); conditions: BG1Luc4E2 viability, CellTiter-Fluor, 22 h; activity change, negative = cytotoxicity: at 70.3 µM (top of the series) unless noted;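 also: compound given together with 17beta-estradiol as the ER stimulus; nearly all actives have a fitted effect of over 45% in size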
# [12] = molecular target: Peroxisome proliferator-activated receptor gamma (Homo sapiens) (UniProt P37231); assay: qHTS assay to identify small molecule antagonists of the peroxisome proliferator-activated receptor gamma (PPARg) signaling pathway (AID 743191; calls by dose curve; also: nearly all actives have a fitted effect of over 30% in size); conditions: HEK293H PPARg-UAS-bla, beta-lactamase ratio, antagonist, 17 h; ratio activity, negative = inhibition: at 62.6 µM (top of the series) unless noted
# Chain of UniProt P37231 (P37231 whole entry, looked up): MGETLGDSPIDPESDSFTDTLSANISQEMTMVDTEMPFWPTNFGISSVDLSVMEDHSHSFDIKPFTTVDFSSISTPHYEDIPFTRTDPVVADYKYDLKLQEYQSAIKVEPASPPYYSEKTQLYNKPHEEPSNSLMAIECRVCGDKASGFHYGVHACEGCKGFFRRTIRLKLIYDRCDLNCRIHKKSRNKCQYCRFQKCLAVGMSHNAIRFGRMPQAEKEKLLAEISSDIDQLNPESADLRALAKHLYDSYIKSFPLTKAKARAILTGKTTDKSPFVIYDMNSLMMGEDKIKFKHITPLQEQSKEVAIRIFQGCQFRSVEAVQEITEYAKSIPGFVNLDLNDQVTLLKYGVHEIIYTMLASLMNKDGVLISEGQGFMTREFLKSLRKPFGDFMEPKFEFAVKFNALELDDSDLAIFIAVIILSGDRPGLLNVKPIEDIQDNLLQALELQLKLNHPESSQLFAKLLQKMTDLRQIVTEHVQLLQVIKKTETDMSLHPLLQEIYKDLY
# How it was run: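 GeneBLAzer PPARg UAS-bla HEK293H cells, 5 h post-plating, exposed to compounds 17 h at 37C. LiveBLAzer B/G FRET substrate added for 1 h at room temperature; beta-lactamase reporter read by fluorescence intensity.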
# [13] = qHTS assay to identify small molecule antagonists of the peroxisome proliferator-activated receptor delta (PPARd) signaling pathway - cell viability counter screen (AID 743213); conditions: PPARd-bla HEK293H viability, CellTiter-Glo luminescence, 17 h; viability change, negative = cytotoxic: at 62 µM (top of the series) unless noted
# How it was run: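 HEK293H cells with the PPARd UAS-bla reporter, co-treated 17 h at 37 C with compounds and L165041 (300 nM final), were lysed with CellTiter-Glo. Luminescence indicated viable cell content.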
# [14] = molecular target: Vitamin D3 receptor (Homo sapiens) (UniProt P11473); assay: qHTS assay to identify small molecule antagonists of the vitamin D receptor (VDR) signaling pathway (AID 743223; active = well fitted inhibition curve with a large enough effect in the signal ratio in the repeat runs, not every such curve was filed as active; inconclusive = weak or mixed curves, or effect the other way; inactive = no such curve, though single readings can be large or run the other way; the % refers to the signal ratio; also: potency is read from the fitted curve at half-maximal effect); conditions: VDR-UAS-bla HEK293T, beta-lactamase FRET ratio, 16 h; activity change, negative = inhibition: at 61 µM (top of the series) unless noted
# Chain of UniProt P11473 (P11473 whole entry, looked up): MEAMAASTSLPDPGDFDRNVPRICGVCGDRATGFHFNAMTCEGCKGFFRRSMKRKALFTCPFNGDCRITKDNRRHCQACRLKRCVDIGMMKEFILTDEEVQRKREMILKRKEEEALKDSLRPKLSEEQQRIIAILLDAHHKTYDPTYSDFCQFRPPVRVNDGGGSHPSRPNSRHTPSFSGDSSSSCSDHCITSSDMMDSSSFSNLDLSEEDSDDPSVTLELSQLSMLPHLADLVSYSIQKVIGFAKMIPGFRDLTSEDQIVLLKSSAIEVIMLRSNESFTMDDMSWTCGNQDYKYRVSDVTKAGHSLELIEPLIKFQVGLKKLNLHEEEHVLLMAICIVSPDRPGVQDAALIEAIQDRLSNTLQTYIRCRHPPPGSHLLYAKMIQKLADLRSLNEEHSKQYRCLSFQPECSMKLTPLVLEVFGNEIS
# How it was run: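 Quantitative HTS in VDR-bla reporter cells stimulated with 1alpha,25-dihydroxyvitamin D3, 3 nM final. Compound exposure 16 h, 37C, 5% CO2. Read-out: beta-lactamase FRET substrate fluorescence, 2 h RT.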
# [15] = qHTS assay to identify small molecule agonists of the TGF-beta/Smad signaling pathway (AID 1346859; active = well fitted activation curve with a large enough effect in the signal ratio in the repeat runs, not every such curve was filed as active; inconclusive = weak or mixed curves; the % refers to the signal ratio; also: potency is read from the fitted curve at half-maximal effect)
# How it was run: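 After overnight seeding, SBE-bla HEK 293T cells are dosed with compounds in DMSO and kept 5 hr at 37 C, 5% CO2. LiveBLAzer-type FRET substrate is then applied for 2 hr at room temperature.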
# [16] = Caspase-3/7 induction in CHO-K1 cells by small molecules, qHTS assay (AID 1346980); also: nearly all actives have a fitted effect of over 15% in size
# How it was run: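 Wild-type CHO-K1 cells exposed to compounds for 17hr at 37 C, 5% CO2. Caspase-3/7 activity then measured by Caspase-Glo 3/7 luminescence after 30min at room temperature.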
# [17] = qHTS assay for small molecule agonists of the antioxidant response element (ARE) signaling pathway (AID 743202; active = well fitted activation curve with a large enough effect in the signal ratio in the repeat runs, not every such curve was filed as active; inconclusive = weak or mixed curves, or effect the other way; inactive = no such curve, though single readings can be large or run the other way; the % refers to the signal ratio); conditions: HepG2 ARE-bla reporter, beta-lactamase FRET, 16 h; activation: at 73.3 µM (top of the series) unless noted
# How it was run: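 HepG2 ARE-bla cells; 16 h treatment at 37 C; FRET-based beta-lactamase fluorescence read after 2 h substrate incubation at room temperature.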
# [18] = molecular target: Peroxisome proliferator-activated receptor delta (Homo sapiens) (UniProt Q03181); assay: qHTS assay to identify small molecule antagonists of the peroxisome proliferator-activated receptor delta (PPARd) signaling pathway (AID 743215; active = well fitted inhibition curve with a large enough effect in the signal ratio in the repeat runs, not every such curve was filed as active; inconclusive = weak or mixed curves, or effect the other way; inactive = no such curve, though single readings can be large or run the other way; the % refers to the signal ratio;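 also: cells stimulated with agonist L165041 at 300 nM final during compound exposure; potency is read from the fitted curve at half-maximal effect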); conditions: HEK293H PPARd-UAS-bla, beta-lactamase FRET ratio, antagonist, 17 h; ratio activity, negative = inhibition: at 62 µM (top of the series) unless noted
# Chain of UniProt Q03181 (Q03181 whole entry, looked up): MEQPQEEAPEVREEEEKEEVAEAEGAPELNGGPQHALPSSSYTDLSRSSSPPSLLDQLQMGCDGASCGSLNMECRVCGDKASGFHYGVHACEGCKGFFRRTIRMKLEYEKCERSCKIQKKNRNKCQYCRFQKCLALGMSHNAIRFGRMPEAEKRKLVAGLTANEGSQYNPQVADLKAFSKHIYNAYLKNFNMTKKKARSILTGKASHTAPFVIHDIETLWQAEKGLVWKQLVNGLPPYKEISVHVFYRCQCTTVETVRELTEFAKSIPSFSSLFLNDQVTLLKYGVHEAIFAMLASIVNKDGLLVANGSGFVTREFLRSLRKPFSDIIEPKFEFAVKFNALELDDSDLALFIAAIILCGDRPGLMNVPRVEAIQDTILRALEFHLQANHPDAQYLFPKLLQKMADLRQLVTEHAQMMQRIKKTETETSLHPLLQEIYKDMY
# How it was run: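 Agonist L165041 (300 nM final) added with compound to PPARd-bla HEK293H UAS-bla reporter cells; 17 h incubation at 37 C. Read-out: LiveBLAzer FRET substrate, 2 h at room temperature, fluorescence intensity.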
# [19] = qHTS assay to identify small molecule agonists of the progesterone receptor (PR) signaling pathway - cell viability counter screen (AID 1346799; calls by dose curve; also: nearly all actives have a fitted effect of over 45% in size)
# How it was run: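 In parallel with the beta-lactamase readout, cytotoxicity toward PR-UAS-bla HEK293T cells was measured by CellTiter-Glo luminescence following 16 hr compound incubation in 2% charcoal-stripped FBS medium.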
# Tags tell the direction and shape of the fitted curve or compound fluorescence and quenching.
smiles,measurement,setting,value
O=S1(=O)CCCC1,Potency,[1],inactive
same,Potency,[2],inactive
same,Potency,[3],inactive
same,Potency,[4],inactive
same,Potency,[5],inactive
same,Potency,[6],inactive
same,Potency,[7],inactive
same,"activity change, negative = inhibition",[8],inconclusive: 12.9%
same,Potency,[9],inactive
COc1ccccc1OCC(O)CO (stereo not given),"ratio activity, negative = MMP loss",[10],inconclusive: 16.7%
same,Potency,[2],inactive
same,Potency,[4],inactive
same,"activity change, negative = cytotoxicity",[11],inconclusive: -1.72% [at 32.5 µM]
same,Potency,[12],inactive
same,Potency,[13],"inconclusive: 0.0944 µM [rising, partial curve, poor fit]"
same,"activity change, negative = inhibition",[14],inconclusive: -16.9%
same,Potency,[15],"inconclusive: 61.6 µM [activator, partial curve, poor fit]"
same,Potency,[16],inactive
CCCCN(CCC(=O)OCC)C(C)=O,Potency,[10],"inconclusive: 61.1 µM [fluorescent, partial curve, poor fit]"
same,Potency,[4],inactive
same,Potency,[17],inactive
same,Potency,[18],"inconclusive: 61.6 µM [activator, single point]"
same,Potency,[14],"inconclusive: 54.9 µM [activator, partial curve, poor fit]"
same,Potency,[19],inactive
same,Potency,[15],inactive
